# Experimental data from the supplement of paper PMC8728848.
# The other results are listed elsewhere or left out.
# Tests used:
# Assay in all cases: glycan array binding signal (z-score within array); higher = stronger binding
# Conditions in all cases: glycan notation: IUPAC condensed, linker removed
# [1] = biological target: Gal(b1-4)GlcNAc(b1-3)Gal(b1-4)GlcNAc(b1-6)[Gal(b1-3)]GalNAc
# How it was run: (§1)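 Glycan array data were curated from 3228 arrays in the Consortium for Functional Glycomics database and kept only where the protein sequence was available. Glycan names were converted to IUPAC-condensed notation, and columns mapping to the same glycan were averaged. The binding signal is a within-array Z-score, averaged across arrays of the same protein sequence at different concentrations or buffers and across linkers. Negative Z-scores can be read as non-binding.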
# [2] = biological target: Gal(b1-4)GlcNAc(b1-3)Gal(b1-4)[Fuc(a1-3)]GlcNAc(b1-3)Gal(b1-4)[Fuc(a1-3)]GlcNAc
# How it was run: as §1
# [3] = biological target: Gal(b1-4)GlcNAc(b1-3)GalNAc
# How it was run: as §1
# [4] = biological target: Gal(b1-4)GlcNAc(b1-3)[Fuc(a1-3)GlcNAc(b1-6)]Gal(b1-4)Glc
# How it was run: as §1
# [5] = biological target: Gal(b1-4)GlcNAc(b1-3)[Gal(b1-4)GlcNAc(b1-6)]Gal(b1-4)GlcNAc
# How it was run: as §1
# [6] = biological target: Gal(b1-4)GlcNAc(b1-3)[GlcNAc(b1-6)]Gal(b1-4)GlcNAc
# How it was run: as §1
# [7] = biological target: Gal(b1-4)GlcNAc(b1-6)Gal(b1-4)GlcNAc
# How it was run: as §1
# [8] = biological target: Gal(b1-4)GlcNAc(b1-6)GalNAc
# How it was run: as §1
# [9] = biological target: Gal(b1-4)GlcNAc(b1-6)[Gal(b1-3)]GalNAc
# How it was run: as §1
# [10] = biological target: Gal(b1-4)GlcNAc(b1-6)[Gal(b1-4)GlcNAc(b1-3)]GalNAc
# How it was run: as §1
# [11] = biological target: Gal(b1-4)GlcNAc6P
# How it was run: as §1
# [12] = biological target: Gal(b1-6)Gal
# How it was run: as §1
# [13] = biological target: Gal3S(b1-3)GalNAc
# How it was run: as §1
# [14] = biological target: Gal3S(b1-3)GlcNAc
# How it was run: as §1
# [15] = biological target: Gal3S(b1-3)[Fuc(a1-4)]GlcNAc
# How it was run: as §1
# [16] = biological target: Gal3S(b1-4)Glc
# How it was run: as §1
# [17] = biological target: Gal3S(b1-4)Glc6S
# How it was run: as §1
# [18] = biological target: Gal3S(b1-4)GlcNAc
# How it was run: as §1
# [19] = biological target: Gal3S(b1-4)[Fuc(a1-3)]Glc6S
# How it was run: as §1
# [20] = biological target: Gal3S(b1-4)[Fuc(a1-3)]GlcNAc
# How it was run: as §1
# [21] = biological target: Gal3S(b1-4)[Fuc(a1-3)]GlcNAc6S
# How it was run: as §1
# [22] = biological target: Gal3S4S(b1-4)GlcNAc
# How it was run: as §1
# [23] = biological target: Gal3S6S(b1-4)GlcNAc
# How it was run: as §1
# [24] = biological target: Gal3S6S(b1-4)GlcNAc6S
# How it was run: as §1
# [25] = biological target: Gal4S(b1-4)GlcNAc
# How it was run: as §1
# [26] = biological target: Gal4S6S(b1-4)GlcNAc
# How it was run: as §1
# [27] = biological target: Gal6P(b1-4)GlcNAc
# How it was run: as §1
# [28] = biological target: Gal6S(b1-3)GlcNAc
# How it was run: as §1
# [29] = biological target: Gal6S(b1-3)GlcNAc6S
# How it was run: as §1
# [30] = biological target: Gal6S(b1-4)Glc
# How it was run: as §1
# [31] = biological target: Gal6S(b1-4)Glc6S
# How it was run: as §1
# [32] = biological target: Gal6S(b1-4)GlcNAc
# How it was run: as §1
# [33] = biological target: Gal6S(b1-4)GlcNAc6S
# How it was run: as §1
# [34] = biological target: GalNAc(a1-3)Gal
# How it was run: as §1
# [35] = biological target: GalNAc(a1-3)GalNAc
# How it was run: as §1
# [36] = biological target: GalNAc(a1-3)GalNAc(b1-3)Gal(a1-4)Gal(b1-4)Glc
# How it was run: as §1
# [37] = biological target: GalNAc(a1-3)GalNAc(b1-3)Gal(a1-4)Gal(b1-4)GlcNAc
# How it was run: as §1
# [38] = biological target: GalNAc(b1-3)Gal
# How it was run: as §1
# [39] = biological target: GalNAc(b1-3)Gal(a1-4)Gal(b1-4)GlcNAc
# How it was run: as §1
# [40] = biological target: GalNAc(b1-3)Gal(a1-4)Gal(b1-4)GlcNAc(b1-3)Gal(b1-4)Glc
# How it was run: as §1
# [41] = biological target: GalNAc(b1-3)Gal(a1-6)Gal(b1-4)Glc
# How it was run: as §1
# [42] = biological target: GalNAc(b1-3)GalNAc
# How it was run: as §1
# [43] = biological target: GalNAc(b1-3)GlcNAc
# How it was run: as §1
# [44] = biological target: GalNAc(b1-4)Gal(b1-4)Glc
# How it was run: as §1
# [45] = biological target: GalNAc(b1-4)GlcNAc
# How it was run: as §1
binder,measurement,setting,value
PX9961T-pdi-555-33-555 (Parabacteroides distasonis) (protein) FDEETAFQSPTLVYVNTVASLYNNMFKIMGNDRHVYDLNTFSSDEAMLPCRIGDWEDGGLWQNIFLHRWGTMNDLTKNSWDFLYEQIGKCNQSVDKLQAFAEEQPDVEYFKVYLEEVRAVRAFFYYELLDLFARVPLVTSSTTPMSEVKQSERSVVFNFVRSELEEALPYLSDNRSNQKGEYYGRITKPVAYMILAKLALNAEVYADDNWTDGNRPAGKNIKFTVDGKEMNAWEATIAYVDKLEALGYKLQGNFSENFAVANETSVENIFTVPMDPVAYPDAKDYNLVRTRHYDHATAYGQSGWNGSCATVKAMNVFKFGTADEDPRCKLTYFTGEVTGPDGKTIYTEWDGQKVPLKYEPNAPKVYMDASDGLLVKTAGARMAKYEFDQNAQDGGNLHGNDCVIFRFADALLMKAEAKIRLGQNGDDEVNQVRNRVGAKPLQNVTLDTLLDERMLELAWEGVRRQDLIRFGKFTEATVDRYVGVKHFASSLDYQEDKTGYTTVFSIYADILSLNPNLTQNPGY,glycan array binding signal (z-score),[1],-0.032
same,glycan array binding signal (z-score),[2],-0.637
same,glycan array binding signal (z-score),[3],-0.356
same,glycan array binding signal (z-score),[4],0.001
same,glycan array binding signal (z-score),[5],-0.204
same,glycan array binding signal (z-score),[6],-0.222
same,glycan array binding signal (z-score),[7],-0.249
same,glycan array binding signal (z-score),[8],-0.746
same,glycan array binding signal (z-score),[9],-0.234
same,glycan array binding signal (z-score),[10],0.248
same,glycan array binding signal (z-score),[11],-0.433
same,glycan array binding signal (z-score),[12],-0.456
same,glycan array binding signal (z-score),[13],0.125
same,glycan array binding signal (z-score),[14],0.012
same,glycan array binding signal (z-score),[15],-0.33
same,glycan array binding signal (z-score),[16],-0.108
same,glycan array binding signal (z-score),[17],0.164
same,glycan array binding signal (z-score),[18],0.365
same,glycan array binding signal (z-score),[19],0.593
same,glycan array binding signal (z-score),[20],0.902
same,glycan array binding signal (z-score),[21],0.154
same,glycan array binding signal (z-score),[22],-0.89
same,glycan array binding signal (z-score),[23],0.349
same,glycan array binding signal (z-score),[24],-0.33
same,glycan array binding signal (z-score),[25],-0.13
same,glycan array binding signal (z-score),[26],0.324
same,glycan array binding signal (z-score),[27],0.026
same,glycan array binding signal (z-score),[28],-0.657
same,glycan array binding signal (z-score),[29],0.629
same,glycan array binding signal (z-score),[30],0.13
same,glycan array binding signal (z-score),[31],-0.372
same,glycan array binding signal (z-score),[32],-0.019
same,glycan array binding signal (z-score),[33],0.07
same,glycan array binding signal (z-score),[34],-0.623
same,glycan array binding signal (z-score),[35],-0.388
same,glycan array binding signal (z-score),[36],0.214
same,glycan array binding signal (z-score),[37],-0.368
same,glycan array binding signal (z-score),[38],-0.387
same,glycan array binding signal (z-score),[39],0.642
same,glycan array binding signal (z-score),[40],0.301
same,glycan array binding signal (z-score),[41],0.464
same,glycan array binding signal (z-score),[42],0.288
same,glycan array binding signal (z-score),[43],-0.214
same,glycan array binding signal (z-score),[44],0
same,glycan array binding signal (z-score),[45],-0.058
